# Some of the results follow.
# Legend:
# Test in all cases: glycan array binding signal (z-score within array); higher = stronger binding
# Conditions in all cases: glycan notation: IUPAC condensed, linker removed
# Gal(a1-2)Gal = molecular target: Gal(a1-2)Gal
# In short: (§1)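 Columns mapping to the same glycan were averaged after glycan names were converted to IUPAC-condensed notation. The data come from 3228 arrays in the Consortium for Functional Glycomics database, limited to those with an available protein sequence. Binding is reported as a within-array Z-score averaged across arrays of one protein sequence and across linkers.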
# Gal(a1-3)Gal = molecular target: Gal(a1-3)Gal
# In short: as §1
# Gal(a1-3)Gal(b1-3)Glc = molecular target: Gal(a1-3)Gal(b1-3)Glc
# In short: as §1
# Gal(a1-3)Gal(b1-3)GlcNAc = molecular target: Gal(a1-3)Gal(b1-3)GlcNAc
# In short: as §1
# [1] = molecular target: Gal(a1-3)Gal(b1-3)GlcNAc(b1-2)Man
# In short: as §1
# [2] = molecular target: Gal(a1-3)Gal(b1-3)GlcNAc(b1-2)Man(a1-3)[Gal(a1-3)Gal(b1-3)GlcNAc(b1-2)Man(a1-6)]Man(b1-4)GlcNAc(b1-4)GlcNAc
# In short: as §1
# [3] = molecular target: Gal(a1-3)Gal(b1-3)GlcNAc(b1-3)GalNAc
# In short: as §1
# [4] = molecular target: Gal(a1-3)Gal(b1-3)GlcNAc(b1-6)GalNAc
# In short: as §1
# [5] = molecular target: Gal(a1-3)Gal(b1-3)[Fuc(a1-4)]GlcNAc(b1-2)Man(a1-3)[Gal(a1-3)Gal(b1-3)[Fuc(a1-4)]GlcNAc(b1-2)Man(a1-6)]Man(b1-4)GlcNAc(b1-4)GlcNAc
# In short: as §1
# Gal(a1-3)Gal(b1-4)Glc = molecular target: Gal(a1-3)Gal(b1-4)Glc
# In short: as §1
# Gal(a1-3)Gal(b1-4)GlcNAc = molecular target: Gal(a1-3)Gal(b1-4)GlcNAc
# In short: as §1
# [6] = molecular target: Gal(a1-3)Gal(b1-4)GlcNAc(b1-2)Man
# In short: as §1
# [7] = molecular target: Gal(a1-3)Gal(b1-4)GlcNAc(b1-2)Man(a1-3)[Gal(a1-3)Gal(b1-4)GlcNAc(b1-2)Man(a1-6)]Man(b1-4)GlcNAc(b1-4)GlcNAc
# In short: as §1
# [8] = molecular target: Gal(a1-3)Gal(b1-4)GlcNAc(b1-3)GalNAc
# In short: as §1
# [9] = molecular target: Gal(a1-3)Gal(b1-4)GlcNAc(b1-6)GalNAc
# In short: as §1
# [10] = molecular target: Gal(a1-3)Gal(b1-4)[Fuc(a1-3)]GalNAc
# In short: as §1
# [11] = molecular target: Gal(a1-3)Gal(b1-4)[Fuc(a1-3)]GlcNAc
# In short: as §1
# [12] = molecular target: Gal(a1-3)Gal(b1-4)[Fuc(a1-3)]GlcNAc(b1-2)Man(a1-3)[Gal(a1-3)Gal(b1-4)[Fuc(a1-3)]GlcNAc(b1-2)Man(a1-6)]Man(b1-4)GlcNAc(b1-4)GlcNAc
# In short: as §1
# Gal(a1-3)GalNAc = molecular target: Gal(a1-3)GalNAc
# In short: as §1
# Gal(a1-3)GlcNAc = molecular target: Gal(a1-3)GlcNAc
# In short: as §1
# [13] = molecular target: Gal(a1-3)[Gal(a1-4)]Gal(b1-4)GlcNAc
# In short: as §1
# [14] = molecular target: Gal(a1-4)Gal(b1-3)GlcNAc(b1-2)Man(a1-3)[Gal(a1-4)Gal(b1-3)GlcNAc(b1-2)Man(a1-6)]Man(b1-4)GlcNAc(b1-4)GlcNAc
# In short: as §1
# Gal(a1-4)Gal(b1-4)Gal = molecular target: Gal(a1-4)Gal(b1-4)Gal
# In short: as §1
# Gal(a1-4)Gal(b1-4)GalNAc = molecular target: Gal(a1-4)Gal(b1-4)GalNAc
# In short: as §1
# Gal(a1-4)Gal(b1-4)Glc = molecular target: Gal(a1-4)Gal(b1-4)Glc
# In short: as §1
# Gal(a1-4)Gal(b1-4)GlcNAc = molecular target: Gal(a1-4)Gal(b1-4)GlcNAc
# In short: as §1
# [15] = molecular target: Gal(a1-4)Gal(b1-4)GlcNAc(b1-2)Man(a1-3)[Gal(a1-4)Gal(b1-4)GlcNAc(b1-2)Man(a1-6)]Man(b1-4)GlcNAc(b1-4)GlcNAc
# In short: as §1
# [16] = molecular target: Gal(a1-4)Gal(b1-4)GlcNAc(b1-3)Gal(b1-4)Glc
# In short: as §1
# Gal(a1-4)GlcNAc = molecular target: Gal(a1-4)GlcNAc
# In short: as §1
# Gal(a1-6)Glc = molecular target: Gal(a1-6)Glc
# In short: as §1
# Gal(b1-2)Gal = molecular target: Gal(b1-2)Gal
# In short: as §1
# Gal(b1-3)Gal = molecular target: Gal(b1-3)Gal
# In short: as §1
# Gal(b1-3)Gal(b1-4)GlcNAc = molecular target: Gal(b1-3)Gal(b1-4)GlcNAc
# In short: as §1
# Gal(b1-3)GalNAc = molecular target: Gal(b1-3)GalNAc
# In short: as §1
# [17] = molecular target: Gal(b1-3)GalNAc(a1-3)[Fuc(a1-2)]Gal(b1-4)Glc
# In short: as §1
# [18] = molecular target: Gal(b1-3)GalNAc(a1-3)[Fuc(a1-2)]Gal(b1-4)GlcNAc
# In short: as §1
# Gal(b1-3)GalNAc(b1-3)Gal = molecular target: Gal(b1-3)GalNAc(b1-3)Gal
# In short: as §1
binder,measurement,setting,value
"LTL (Lotus tetragonolobus), P19664 (protein) VSFNYTEFKDDGSLILQGDAKIWTDGRLAMPTDPLVNNPKTTRSAGRALYATPVPIWDSATGNVASFVTSFNFLFVIRELKYTPTDGLVFFLAPVGTEIPSGSTGGFLGIFDGSNGFNQFVAVEFDSYHNIWDPKSLRSSHVGIDVNSIMSLKAVNWNRVSGSLEKATIIYDSQTNILSVVMTSQNGQITTIYGTIDLKTVLPEKVSVGFSATTGNPEREKHDIYSWSFTSTLKEPEEQA",glycan array binding signal (z-score),Gal(a1-2)Gal,-0.26
same,glycan array binding signal (z-score),Gal(a1-3)Gal,-0.172
same,glycan array binding signal (z-score),Gal(a1-3)Gal(b1-3)Glc,-0.091
same,glycan array binding signal (z-score),Gal(a1-3)Gal(b1-3)GlcNAc,-0.306
same,glycan array binding signal (z-score),[1],-0.377
same,glycan array binding signal (z-score),[2],1.7
same,glycan array binding signal (z-score),[3],-0.223
same,glycan array binding signal (z-score),[4],-0.19
same,glycan array binding signal (z-score),[5],0.316
same,glycan array binding signal (z-score),Gal(a1-3)Gal(b1-4)Glc,-0.077
same,glycan array binding signal (z-score),Gal(a1-3)Gal(b1-4)GlcNAc,-0.23
same,glycan array binding signal (z-score),[6],-0.168
same,glycan array binding signal (z-score),[7],0.071
same,glycan array binding signal (z-score),[8],-0.205
same,glycan array binding signal (z-score),[9],-0.284
same,glycan array binding signal (z-score),[10],-0.905
same,glycan array binding signal (z-score),[11],-0.209
same,glycan array binding signal (z-score),[12],0.006
same,glycan array binding signal (z-score),Gal(a1-3)GalNAc,-0.184
same,glycan array binding signal (z-score),Gal(a1-3)GlcNAc,-0.462
same,glycan array binding signal (z-score),[13],0.149
same,glycan array binding signal (z-score),[14],-0.235
same,glycan array binding signal (z-score),Gal(a1-4)Gal(b1-4)Gal,-0.525
same,glycan array binding signal (z-score),Gal(a1-4)Gal(b1-4)GalNAc,-0.433
same,glycan array binding signal (z-score),Gal(a1-4)Gal(b1-4)Glc,-0.09
same,glycan array binding signal (z-score),Gal(a1-4)Gal(b1-4)GlcNAc,-0.162
same,glycan array binding signal (z-score),[15],0.224
same,glycan array binding signal (z-score),[16],-0.102
same,glycan array binding signal (z-score),Gal(a1-4)GlcNAc,-0.262
same,glycan array binding signal (z-score),Gal(a1-6)Glc,-0.261
same,glycan array binding signal (z-score),Gal(b1-2)Gal,-0.208
same,glycan array binding signal (z-score),Gal(b1-3)Gal,-0.325
same,glycan array binding signal (z-score),Gal(b1-3)Gal(b1-4)GlcNAc,-0.185
same,glycan array binding signal (z-score),Gal(b1-3)GalNAc,-0.115
same,glycan array binding signal (z-score),[17],-0.041
same,glycan array binding signal (z-score),[18],-0.261
same,glycan array binding signal (z-score),Gal(b1-3)GalNAc(b1-3)Gal,-0.295

# Reference: the supplement of paper PMC8728848
